Settings in all cases: both partners purified
In test [1] the target is T1, actin filament barbed ends elongating from unlabeled rabbit skeletal muscle actin (rabbit, UniProt P68135). Nature of the test: single-filament microfluidics with fluorescence microscopy; zero force, striped filaments anchored by spectrin-actin seeds (Figure 1B), formin from solution; 2 µM unlabeled actin, 4 µM profilin, 100 mM KCl.
For test [2], the target named is T1, actin filament barbed ends elongating …. Nature of the test: single-filament microfluidics with fluorescence microscopy; zero force, striped filaments anchored by spectrin-actin seeds (Figure 1B), formin from solution; 2 µM unlabeled actin, no profilin, 100 mM KCl.
The target is the same in test [3]. Nature of the test: single-filament microfluidics with fluorescence microscopy; zero force, striped filaments anchored by spectrin-actin seeds (Figure 1B), formin from solution; 0.5 µM unlabeled actin, 4 µM profilin, 100 mM KCl.

B1: mDia2(SNAP-FH1-FH2-DAD-6xHis) (domain or fragment)
chain: not shown
notes: mouse formin mDia2, FH1-FH2-DAD, […] of […]; Formin homodimer; also called mDia2(FH1-FH2-DAD); Mouse mDia2(FH1-FH2-DAD); source: E. coli Rosetta 2 (DE3), purified; not shown: His6, C-terminal, kept
For B1, the dissociation rate constant (koff) in test [1] was determined as 0.00084 s⁻¹; in test [2] it was 0.0015 s⁻¹; in test [3] it was 0.0003 s⁻¹.

(Values after publication PMC5969902, “Modulation of formin processivity by profilin and mechanical tension” (eLife, 2018).)
